# Assay results as given in the supplement of paper PMC12423691.
# This is one part of the list. Binding of human transcription factors and regulators to the viral nucleoprotein by AlphaScreen, crude cell-free proteins, amounts not normalised, one pass. Fold of the Venus control; higher = more signal. No active / inactive call. Single-pass screen; sequences are the whole Swiss-Prot entries looked up by name.
# B1: PBX4, Q9BYU1 (protein)
# chain: MAAPPRPAPSPPAPRRLDTSDVLQQIMAITDQSLDEAQARKHALNCHRMKPALFSVLCEIKEKTVVSIRGIQDEDPPDAQLLRLDNMLLAEGVCRPEKRGRGGAVARAGTATPGGCPNDNSIEHSDYRAKLSQIRQIYHSELEKYEQACREFTTHVTNLLQEQSRMRPVSPKEIERMVGAIHGKFSAIQMQLKQSTCEAVMTLRSRLLDARRKRRNFSKQATEVLNEYFYSHLNNPYPSEEAKEELARKGGLTISQVSNWFGNKRIRYKKNMGKFQEEATIYTGKTAVDTTEVGVPGNHASCLSTPSSGSSGPFPLPSAGDAFLTLRTLASLQPPPGGGCLQSQAQGSWQGATPQPATASPAGDPGSINSSTSN
# B2: FOXN3, O00409 (protein)
# chain: MGPVMPPSKKPESSGISVSSGLSQCYGGSGFSKALQEDDDLDFSLPDIRLEEGAMEDEELTNLNWLHESKNLLKSFGESVLRSVSPVQDLDDDTPPSPAHSDMPYDARQNPNCKPPYSFSCLIFMAIEDSPTKRLPVKDIYNWILEHFPYFANAPTGWKNSVRHNLSLNKCFKKVDKERSQSIGKGSLWCIDPEYRQNLIQALKKTPYHPHPHVFNTPPTCPQAYQSTSGPPIWPGSTFFKRNGALLQDPDIDAASAMMLLNTPPEIQAGFPPGVIQNGARVLSRGLFPGVRPLPITPIGVTAAMRNGITSCRMRTESEPSCGSPVVSGDPKEDHNYSSAKSSNARSTSPTSDSISSSSSSADDHYEFATKGSQEGSEGSEGSFRSHESPSDTEEDDRKHSQKEPKDSLGDSGYASQHKKRQHFAKARKVPSDTLPLKKRRTEKPPESDDEEMKEAAGSLLHLAGIRSCLNNITNRTAKGQKEQKETTKN
# B3: SOX7, Q9BT81 (protein)
# chain: MASLLGAYPWPEGLECPALDAELSDGQSPPAVPRPPGDKGSESRIRRPMNAFMVWAKDERKRLAVQNPDLHNAELSKMLGKSWKALTLSQKRPYVDEAERLRLQHMQDYPNYKYRPRRKKQAKRLCKRVDPGFLLSSLSRDQNALPEKRSGSRGALGEKEDRGEYSPGTALPSLRGCYHEGPAGGGGGGTPSSVDTYPYGLPTPPEMSPLDVLEPEQTFFSSPCQEEHGHPRRIPHLPGHPYSPEYAPSPLHCSHPLGSLALGQSPGVSMMSPVPGCPPSPAYYSPATYHPLHSNLQAHLGQLSPPPEHPGFDALDQLSQVELLGDMDRNEFDQYLNTPGHPDSATGAMALSGHVPVSQVTPTGPTETSLISVLADATATYYNSYSVS
# B4: CDX2, Q99626 (protein)
# chain: MYVSYLLDKDVSMYPSSVRHSGGLNLAPQNFVSPPQYPDYGGYHVAAAAAAAANLDSAQSPGPSWPAAYGAPLREDWNGYAPGGAAAAANAVAHGLNGGSPAAAMGYSSPADYHPHHHPHHHPHHPAAAPSCASGLLQTLNPGPPGPAATAAAEQLSPGGQRRNLCEWMRKPAQQSLGSQVKTRTKDKYRVVYTDHQRLELEKEFHYSRYITIRRKAELAATLGLSERQVKIWFQNRRAKERKINKKKLQQQQQQQPPQPPPPPPQPPQPQPGPLRSVPEPLSPVSSLQASVPGSVPGVLGPTGGVLNPTVTQ
# B5: ERG, P11308 (protein)
# chain: MASTIKEALSVVSEDQSLFECAYGTPHLAKTEMTASSSSDYGQTSKMSPRVPQQDWLSQPPARVTIKMECNPSQVNGSRNSPDECSVAKGGKMVGSPDTVGMNYGSYMEEKHMPPPNMTTNERRVIVPADPTLWSTDHVRQWLEWAVKEYGLPDVNILLFQNIDGKELCKMTKDDFQRLTPSYNADILLSHLHYLRETPLPHLTSDDVDKALQNSPRLMHARNTGGAAFIFPNTSVYPEATQRITTRPDLPYEPPRRSAWTGHGHPTPQSKAAQPSPSTVPKTEDQRPQLDPYQILGPTSSRLANPGSGQIQLWQFLLELLSDSSNSSCITWEGTNGEFKMTDPDEVARRWGERKSKPNMNYDKLSRALRYYYDKNIMTKVHGKRYAYKFDFHGIAQALQPHPPESSLYKYPSDLPYMGSYHAHPQKMNFVAPHPPALPVTSSSFFAAPNPYWNSPTGGIYPNTRLPTSHMPSHLGTYY
# B6: ARNTL2, Q8WYA1 (protein)
# chain: MAAEEEAAAGGKVLREENQCIAPVVSSRVSPGTRPTAMGSFSSHMTEFPRKRKGSDSDPSQSGIMTEKVVEKLSQNPLTYLLSTRIEISASSGSRVEDGEHQVKMKAFREAHSQTEKRRRDKMNNLIEELSAMIPQCNPMARKLDKLTVLRMAVQHLRSLKGLTNSYVGSNYRPSFLQDNELRHLILKTAEGFLFVVGCERGKILFVSKSVSKILNYDQASLTGQSLFDFLHPKDVAKVKEQLSSFDISPREKLIDAKTGLQVHSNLHAGRTRVYSGSRRSFFCRIKSCKISVKEEHGCLPNSKKKEHRKFYTIHCTGYLRSWPPNIVGMEEERNSKKDNSNFTCLVAIGRLQPYIVPQNSGEINVKPTEFITRFAVNGKFVYVDQRATAILGYLPQELLGTSCYEYFHQDDHNNLTDKHKAVLQSKEKILTDSYKFRAKDGSFVTLKSQWFSFTNPWTKELEYIVSVNTLVLGHSEPGEASFLPCSSQSSEESSRQSCMSVPGMSTGTVLGAGSIGTDIANEILDLQRLQSSSYLDDSSPTGLMKDTHTVNCRSMSNKELFPPSPSEMGELEATRQNQSTVAVHSHEPLLSDGAQLDFDALCDNDDTAMAAFMNYLEAEGGLGDPGDFSDIQWTL
# B7: HMOX1, P09601 (protein)
# chain: MERPQPDSMPQDLSEALKEATKEVHTQAENAEFMRNFQKGQVTRDGFKLVMASLYHIYVALEEEIERNKESPVFAPVYFPEELHRKAALEQDLAFWYGPRWQEVIPYTPAMQRYVKRLHEVGRTEPELLVAHAYTRYLGDLSGGQVLKKIAQKALDLPSSGEGLAFFTFPNIASATKFKQLYRSRMNSLEMTPAVRQRVIEEAKTAFLLNIQLFEELQELLTHDTKDQSPSRAPGLRQRASNKVQDSAPVETPRGKPPLNTRSQAPLLRWVLTLSFLVATVAVGLYAM
# B8: MXD1, Q05195 (protein)
# chain: MAAAVRMNIQMLLEAADYLERREREAEHGYASMLPYNNKDRDALKRRNKSKKNNSSSRSTHNEMEKNRRAHLRLCLEKLKGLVPLGPESSRHTTLSLLTKAKLHIKKLEDCDRKAVHQIDQLQREQRHLKRQLEKLGIERIRMDSIGSTVSSERSDSDREEIDVDVESTDYLTGDLDWSSSSVSDSDERGSMQSLGSDEGYSSTSIKRIKLQDSHKACLGL
# B9: ATF2, P15336 (protein)
# chain: MKFKLHVNSARQYKDLWNMSDDKPFLCTAPGCGQRFTNEDHLAVHKHKHEMTLKFGPARNDSVIVADQTPTPTRFLKNCEEVGLFNELASPFENEFKKASEDDIKKMPLDLSPLATPIIRSKIEEPSVVETTHQDSPLPHPESTTSDEKEVPLAQTAQPTSAIVRPASLQVPNVLLTSSDSSVIIQQAVPSPTSSTVITQAPSSNRPIVPVPGPFPLLLHLPNGQTMPVAIPASITSSNVHVPAAVPLVRPVTMVPSVPGIPGPSSPQPVQSEAKMRLKAALTQQHPPVTNGDTVKGHGSGLVRTQSEESRPQSLQQPATSTTETPASPAHTTPQTQSTSGRRRRAANEDPDEKRRKFLERNRAAASRCRQKRKVWVQSLEKKAEDLSSLNGQLQSEVTLLRNEVAQLKQLLLAHKDCPVTAMQKKSGYHTADKDDSSEDISVPSSPHTEAIQHSSVSTSNGVSSTSKAEAVATSVLTQMADQSTEPALSQIVMAPSSQSQPSGS
# B10: PRKD1, Q15139 (protein)
# chain: MSAPPVLRPPSPLLPVAAAAAAAAAALVPGSGPGPAPFLAPVAAPVGGISFHLQIGLSREPVLLLQDSSGDYSLAHVREMACSIVDQKFPECGFYGMYDKILLFRHDPTSENILQLVKAASDIQEGDLIEVVLSASATFEDFQIRPHALFVHSYRAPAFCDHCGEMLWGLVRQGLKCEGCGLNYHKRCAFKIPNNCSGVRRRRLSNVSLTGVSTIRTSSAELSTSAPDEPLLQKSPSESFIGREKRSNSQSYIGRPIHLDKILMSKVKVPHTFVIHSYTRPTVCQYCKKLLKGLFRQGLQCKDCRFNCHKRCAPKVPNNCLGEVTINGDLLSPGAESDVVMEEGSDDNDSERNSGLMDDMEEAMVQDAEMAMAECQNDSGEMQDPDPDHEDANRTISPSTSNNIPLMRVVQSVKHTKRKSSTVMKEGWMVHYTSKDTLRKRHYWRLDSKCITLFQNDTGSRYYKEIPLSEILSLEPVKTSALIPNGANPHCFEITTANVVYYVGENVVNPSSPSPNNSVLTSGVGADVARMWEIAIQHALMPVIPKGSSVGTGTNLHRDISVSISVSNCQIQENVDISTVYQIFPDEVLGSGQFGIVYGGKHRKTGRDVAIKIIDKLRFPTKQESQLRNEVAILQNLHHPGVVNLECMFETPERVFVVMEKLHGDMLEMILSSEKGRLPEHITKFLITQILVALRHLHFKNIVHCDLKPENVLLASADPFPQVKLCDFGFARIIGEKSFRRSVVGTPAYLAPEVLRNKGYNRSLDMWSVGVIIYVSLSGTFPFNEDEDIHDQIQNAAFMYPPNPWKEISHEAIDLINNLLQVKMRKRYSVDKTLSHPWLQDYQTWLDLRELECKIGERYITHESDDLRWEKYAGEQGLQYPTHLINPSASHSDTPETEETEMKALGERVSIL
# Target: nucleoprotein N of Crimean-Congo hemorrhagic fever virus
# Assay: AlphaScreen luminescence signal relative to Venus negative control (fold); higher = stronger binding to CCHFV N
# Method: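 AlphaScreen binding of cell-free made, FLAG-GST-tagged human transcription factors and regulators (crude translation products) to biotinylated N protein; signal as fold of the FLAG-GST-Venus control. One pass.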
row,Binder,AlphaScreen luminescence signal
1,B1,1.95
2,B2,1.86
3,B3,4.28
4,B4,2.65
5,B5,2.88
6,B6,2.28
7,B7,2.56
8,B8,4.37
9,B9,2.05
10,B10,11
